We go through 60 molecules from PubChem BioAssay AID463173 (ICCB-Longwood Screening Facility, Harvard Medical School, 2010).

Molecules are shown by their SMILES. Among all 52,000 compounds or so, about 1,700 (3.3%) were called active. Cut-off read from the data, not from the text of the source: active = survival mostly below about 52% (no sharp cut-off); inactive = mostly above about 56%. The list shows a part of the results.

The subject of this test is Wild type. In words: S. aureus survival, RN4220 and DeltatarO strains – OD600, teichoic acid synthesis inhibitors, primary screen (AID 463173). The settings on record: S. aureus RN4220 wild type/DeltatarO growth, OD600, 18 h, stronger effect = lower value, screened at 18.75 µg/mL (by protocol).
As for `CC(=O)Nc1ccc(S(=O)(=O)NCCc2csc3nc(-c4ccc(Cl)cc4)nn23)cc1`, the survival was inactive: 67%.

`COc1ccc(C2NCCS2)cc1` (stereo not given): the survival was inactive: 108%.

On to `CC(=O)Nc1cc2c(cc1C(=O)c1ccccc1)OCCO2`, for which the survival is inactive: 117%. For `Cc1ccc(C)n1NC(=O)c1ccc(O)cc1`, the survival was inactive: 99%. With `CCc1ccc(NC(=O)C2CCCN(S(=O)(=O)c3ccc4[nH]c(=O)ccc4c3)C2)cc1` (stereo not given) the figure was inactive: 101%; with `COc1cccc(C(c2sc3nc(-c4ccco4)nn3c2O)N2CCC(C)CC2)c1` (stereo not given), inactive: 77%; with `O=C(CSc1ccnc(=O)[nH]1)NCc1ccc(F)cc1`, inactive: 125%. With `CCOC(=O)C1CCN(C(=O)Cn2nc(C)n3c(cc4c(OC)cccc43)c2=O)CC1` the figure was inactive: 86%; with `CCC1CN(C(=O)NCc2ccc(F)cc2)c2cc(C)ccc2O1` (stereo not given), inactive: 95%; with `Cc1ccc(/C=C/C(=O)NCCCn2ccnc2)cc1`, inactive: 102%. With `CN1C(=O)c2ccccc2Sc2ccc(NC(=O)Cc3ccc(Cl)cc3)cc21` the figure was inactive: 131%; with `CCOC(=O)C1CCCN(c2c3c(nc4cc(-c5ccc(C)cc5)nn24)CCC3)C1` (stereo not given), inactive: 105%; with `Cc1cccc(N(C)S(=O)(=O)c2nnc(NC(=O)C(C)Oc3ccccc3)s2)c1` (stereo not given), inactive: 57%.

Regarding `COC(=O)c1sccc1S(=O)(=O)N1CCN(c2cccc(C)c2)C(C)C1` (stereo not given), the survival is inactive: 63%.

In the case of `COc1ccc(OC)c(CCNC(=O)c2ccc3c(c2)N(Cc2ccccc2)CCS3)c1`, the survival was inactive: 85%.

On to `CCOC(=O)c1cccc(NC(=O)C2COc3ccc(OC)cc3C2)c1` (stereo not given), for which the survival is inactive: 66%. With `Cc1ccc(CCNC(=O)C2CC(=O)N(CCc3ccc(C)cc3)C2)cc1` (stereo not given) the figure was inactive: 75%; with `CC1CCCCN1C(=O)C1COc2ccccc2O1` (stereo not given), inactive: 105%. The same measure for `O=C1C2C3C=CC(C3)C2C(=O)N1c1ccc2c(c1)OCO2` (stereo not given): inactive: 94%.

Consider `NC(=O)C1CCN(C(=O)CSc2nccc(-c3ccccc3)n2)CC1`, for which the survival is inactive: 92%. `O=C(NCc1ccccc1)C1CCN(c2ncnc3c2nc2n3CCCCC2)CC1`: the survival was inactive: 82%. The same measure for `COc1ccc(C)cc1NC(=O)CSc1nc(=O)n(Cc2ccco2)c2c1CCC2`: inactive: 135%; for `Cc1ccc(-n2cc(-c3ccccc3)c3c(N4CCC(C)CC4)ncnc32)cc1Cl`: inactive: 91%. For `CCCCc1ccc(NC(=O)Cn2cnc3c(oc4ccccc43)c2=O)cc1`, the survival is inactive: 100%. On to `O=C(NCc1ccc(Cl)cc1)c1ccc2c(c1)nnn2C1CCCC1`, for which the survival is inactive: 76%. The same measure for `CCCC(=O)Nc1ccc(NC(=O)c2ccc(OC)cc2)cn1`: inactive: 99%; for `Cc1nc2nc(NCc3ccccc3Cl)[nH]n2c(=O)c1Cc1ccccc1`: inactive: 86%; for `O=C(Nc1ccccc1OCc1cc(=O)n2ccccc2n1)Nc1ccccc1C(F)(F)F`: inactive: 83%. Consider `CCOC(=O)c1cnc2c(C)cc(C)cc2c1NCCN1CCOCC1`, for which the survival was inactive: 53%.

Consider `CCCSC1=NC2(CCN(C(=O)NC3CCCCC3)CC2)N=C1c1ccc(C)cc1`, for which the survival was inactive: 73%. Turning to `Cc1ccc(C)c(OCc2nc3ccccc3n2C)c1`, the survival is inactive: 85%. With `Cc1ccccc1NC(=O)CSc1nc2c(oc3ccccc32)c(=O)n1Cc1ccco1` the figure was inactive: 77%. With `CN1CCN(NC(=O)c2ccc(Cl)cc2)CC1` the figure was inactive: 118%. On to `COCCNC(=O)c1cn(C(C)c2ccccc2)nn1` (stereo not given), for which the survival was inactive: 118%. Regarding `COc1cc(C(=O)Nc2ccc3nc(SCc4ccccc4)sc3c2)cc(OC)c1OC`, the survival was inactive: 86%.

Regarding `Cc1c2cnn(CC(=O)Nc3cccc(C(F)(F)F)c3)c(=O)c2c(C)n1Cc1ccccc1Cl`, the survival is inactive: 85%. With `O=C1CC(Sc2ncccc2C(=O)O)C(=O)N1` (stereo not given) the figure was inactive: 110%; with `CCOC(=O)N1CCc2c(sc3c2c(=O)n(-c2ccc(CC)cc2)c(=O)n3CC(=O)c2ccc(F)cc2)C1`, inactive: 91%. With `COc1ccccc1/C=C/c1nc(C#N)c(N(C)C)o1`, the survival was inactive: 89%. The same measure for `O=C(c1cc2ncc(Br)cn2n1)N1CCCCC1`: inactive: 119%; for `Cc1c2cnn(CC(=O)NC(C)C)c(=O)c2c(C)n1Cc1ccccc1Cl`: inactive: 87%. With `CCN(C(=O)CSc1nc2ccccc2n1Cc1cc(C)ccc1C)c1ccccc1` the figure was inactive: 72%. The same measure for `Cc1ccc(C(=O)NCC(c2cccs2)S(=O)(=O)c2cccs2)cc1` (stereo not given): inactive: 85%.

As for `CCC(Sc1nncn2c1cc1occc12)C(=O)Nc1ccc(C)c(Cl)c1` (stereo not given), the survival was inactive: 44%.

As for `CC(Sc1nnc(-c2ccccc2)n1N)C(=O)O` (stereo not given), the survival is inactive: 109%. With `O=C(Cn1nc(-c2ccc(Cl)cc2)ccc1=O)NCc1ccccc1Cl` the figure was inactive: 65%; with `COc1cccc(N2CCN(C3C(=O)c4ccccc4N3C(C)=O)CC2)c1` (stereo not given), inactive: 74%.

As to `COc1cccc(C2C(C(=O)Nc3ccc(C)cc3C)=C(C)Nc3c(C(=O)Nc4cccc(C)c4)cnn32)c1OC` (stereo not given), the survival was inactive: 78%. With `CCOc1ccc(OCC)c(NC(=O)CN(C)S(=O)(=O)c2ccc3c(c2)CCCC(=O)N3)c1` the figure was inactive: 57%; with `COc1ccc(N2CCN(C(=O)c3ccc(-c4nc(COc5ccccc5)c(C)o4)cc3)CC2)cc1`, inactive: 82%; with `CCCNC(=O)C1CCC(Cn2c(=O)c3sccc3n(CC(=O)N3CCC(C)CC3)c2=O)CC1` (stereo not given), inactive: 75%. The same measure for `Cc1cccc(OCC(=O)N(Cc2sccc2C)C2CCS(=O)(=O)C2)c1` (stereo not given): inactive: 85%.

Take `Cc1cccc(C)c1NC(=O)CCC(=O)O`: the survival was inactive: 99%. The same measure for `COc1ccc(N2CCN(C(=O)c3nc(SC)ncc3Cl)CC2)cc1`: inactive: 93%; for `CC1=C(c2ccc(C)c(C)c2)S(=O)(=O)N=C1N1CCC(C(=O)NCc2ccc(C)o2)CC1`: inactive: 82%; for `Cc1ccccc1OCCn1c(CCNC(=O)C(C)(C)C)nc2ccccc21`: inactive: 75%. The same measure for `COc1ccc(C(C)C)cc1S(=O)(=O)NCCc1c(C)[nH]c2ccc(C)cc12`: inactive: 139%; for `CC(C)(C)OC(=O)N1CCC(c2c(C(=O)N3CCc4ccccc4C3)cnn2-c2ccc(F)cc2)CC1`: inactive: 76%.

On to `Cc1coc2c(C)c3oc(=O)c(CCC(=O)NCCc4ccc(Cl)cc4)c(C)c3cc12`, for which the survival is inactive: 79%.

For the molecule `CCc1ccc(CNC(=O)c2ccc(-c3nc(CS(=O)(=O)c4ccccc4)c(C)o3)cc2)cc1`, the survival was inactive: 53%.
